About 2,200 (0.71%) of roughly 310,000 compounds showed an effect of 50% or more. The effect is printed as a negative number. The list shows a part of the results.

Consider 56 compounds from paper PMC4336329 (PLoS ONE, 2015).

The target of this assay is human ether-à-go-go-related gene (hERG) potassium channel (human, UniProt Q12809). Kind of assay: primary screen, population patch clamp on CHO cells stably expressing hERG.
Sequence of human ether-à-go-go-related gene (hERG) potassium channel (Q12809 whole entry, looked up): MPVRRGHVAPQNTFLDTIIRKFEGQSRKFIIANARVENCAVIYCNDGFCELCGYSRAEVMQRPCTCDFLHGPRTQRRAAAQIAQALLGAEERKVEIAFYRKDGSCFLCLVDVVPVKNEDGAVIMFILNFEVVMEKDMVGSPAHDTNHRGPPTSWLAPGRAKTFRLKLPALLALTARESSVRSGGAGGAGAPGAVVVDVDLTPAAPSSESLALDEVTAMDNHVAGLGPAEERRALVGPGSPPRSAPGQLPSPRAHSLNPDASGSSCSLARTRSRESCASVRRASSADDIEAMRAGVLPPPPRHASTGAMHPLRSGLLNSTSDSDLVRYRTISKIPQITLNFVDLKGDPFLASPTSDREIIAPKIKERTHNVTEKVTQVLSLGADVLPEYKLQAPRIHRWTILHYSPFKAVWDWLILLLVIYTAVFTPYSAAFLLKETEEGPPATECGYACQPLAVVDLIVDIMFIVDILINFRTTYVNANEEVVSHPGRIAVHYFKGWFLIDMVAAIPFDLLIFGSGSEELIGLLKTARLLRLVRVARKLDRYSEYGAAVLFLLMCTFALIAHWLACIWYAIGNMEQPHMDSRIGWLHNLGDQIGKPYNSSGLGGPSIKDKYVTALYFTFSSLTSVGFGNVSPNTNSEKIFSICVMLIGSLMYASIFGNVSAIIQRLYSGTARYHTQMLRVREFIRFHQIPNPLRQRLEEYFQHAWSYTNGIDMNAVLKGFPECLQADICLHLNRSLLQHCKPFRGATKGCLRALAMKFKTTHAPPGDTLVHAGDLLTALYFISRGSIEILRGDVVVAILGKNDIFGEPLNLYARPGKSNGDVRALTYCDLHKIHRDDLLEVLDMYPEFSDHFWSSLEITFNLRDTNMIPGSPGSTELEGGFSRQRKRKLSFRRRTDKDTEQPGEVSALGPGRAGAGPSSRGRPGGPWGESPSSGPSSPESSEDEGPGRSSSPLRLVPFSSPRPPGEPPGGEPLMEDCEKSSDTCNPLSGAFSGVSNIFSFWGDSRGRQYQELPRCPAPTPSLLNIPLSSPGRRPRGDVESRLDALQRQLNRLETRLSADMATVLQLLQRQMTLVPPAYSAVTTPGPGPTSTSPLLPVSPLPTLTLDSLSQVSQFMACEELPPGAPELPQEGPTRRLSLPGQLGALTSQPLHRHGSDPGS
Regarding `O=C1NC(=O)C2(Cc3cc([N+](=O)[O-])ccc3N3CCN(C(=O)c4ccccc4)CC32)C(=O)N1` (centres unmarked), the “hERG current change (%, negative = inhibition) at 1uM” value is 12%.

Turning to `COc1ccc(C(=O)NCC(=O)NCC2(N(C)C)CCCCC2)cc1OC`, the “hERG current change (%, negative = inhibition) at 1uM” value is given as 14.2%.

Take `Cc1cccc(NC(=O)c2cc(-c3cc(C)c(C)cc3O)n[nH]2)c1`: the “hERG current change (%, negative = inhibition) at 1uM” value is listed as 14.9%.

On to `CC(=O)Nc1ccc(NC(=O)C(C)OC(=O)c2ccccc2NS(=O)(=O)c2cccs2)cc1` (centres unmarked), for which the “hERG current change (%, negative = inhibition) at 1uM” value is given as 5.11%.

On to `CCOc1ccccc1C1c2[nH]c3ccccc3c2C[C@H]2C(=O)N(C3CCN(Cc4ccccc4)CC3)CC(=O)N12` (some centres unmarked), for which the “hERG current change (%, negative = inhibition) at 1uM” value worked out at 6.74%.

Consider `COc1ccccc1OCCOCCN1CCCC1`, for which the “hERG current change (%, negative = inhibition) at 1uM” value came out at 13.2%.

As to `CC(C)NC(=O)c1ccc(N2CCOCC2)nc1`, the “hERG current change (%, negative = inhibition) at 1uM” value came to 14.7%.

As to `COC(=O)c1ccc2c(=O)n(NC(=O)C(c3ccccc3)c3ccccc3)c(=S)[nH]c2c1`, the “hERG current change (%, negative = inhibition) at 1uM” value is reported as -9.45%.

For `CCN(CC)C(=O)Cn1cc(S(=O)(=O)CC(=O)Nc2ccc(C(N)=O)cc2)c2ccccc21`, the “hERG current change (%, negative = inhibition) at 1uM” value stood at 28.8%.

On to `S=c1[nH]ccn1-c1ccc(Cl)cc1`, for which the “hERG current change (%, negative = inhibition) at 1uM” value amounted to 14.5%.

In the case of `C/C(=C\c1ccco1)CN1CCN(Cc2ccc(C)o2)C(CCO)C1` (centres unmarked), the “hERG current change (%, negative = inhibition) at 1uM” value came out at 7.81%.

As for `CC(=O)N1CCCc2ccccc21`, the “hERG current change (%, negative = inhibition) at 1uM” value was 16.7%.

For the compound `O=C(/C=C/c1ccc(O)cc1)c1ccccc1`, the “hERG current change (%, negative = inhibition) at 1uM” value is listed as 7.98%.

As for `CC1(C)c2[nH]c3ccccc3c2C[C@@H]2C(=O)N(Cc3ccccc3Cl)C(=O)N21`, the “hERG current change (%, negative = inhibition) at 1uM” value was determined as 15.7%.

As for `Cc1ccc(S(=O)(=O)NC(=O)N2CCN(Cc3c(F)cccc3Cl)CC2)cc1`, the “hERG current change (%, negative = inhibition) at 1uM” value was 19.2%.

Consider `CC(C)(C)NC(=O)C(c1ccc(Cl)cc1)N(Cc1ccco1)C(=O)CCl` (centres unmarked), for which the “hERG current change (%, negative = inhibition) at 1uM” value was 6.64%.

`NC(=O)c1ccc(N2CCCCC2)c(N2C(=O)C3C4C=CC(C4)C3C2=O)c1` (centres unmarked): the “hERG current change (%, negative = inhibition) at 1uM” value amounted to 6.68%.

For the compound `C=C(C)C(=O)N1CC2(CC(c3cccc(NC(=O)c4ccccc4)c3)=NO2)C[C@@H]1C(N)=O` (some centres unmarked), the “hERG current change (%, negative = inhibition) at 1uM” value came to 6.2%.

With `CCN(CC)C(=O)c1sc(N2C(=O)Nc3ccccc3N2O)c(C(=O)OC)c1C`, the “hERG current change (%, negative = inhibition) at 1uM” value was found to be 2.68%.

Take `CC12CCC(C(=O)NCc3ccccc3Cl)(CC1=O)C2(C)C` (centres unmarked): the “hERG current change (%, negative = inhibition) at 1uM” value was determined as 12.4%.

As to `CCOC(=O)c1cc(-c2ccccc2)n(CC(=O)O)c1C`, the “hERG current change (%, negative = inhibition) at 1uM” value was found to be 3.85%.

Turning to `COc1ccc(C(=O)C[n+]2ccc3c(c2)nc(-c2cc(OC)c(OC)cc2OC)n3C)cc1.[Br-]`, the “hERG current change (%, negative = inhibition) at 1uM” value is given as 4.74%.

Regarding `COc1cc(OC)nc(NC(=O)CSc2nc3ccccc3[nH]2)n1`, the “hERG current change (%, negative = inhibition) at 1uM” value is on record as 11.4%.

Take `COc1cccc(NC(=O)CN(C)C(=O)C(CCSC)NC(=O)c2ccco2)c1` (centres unmarked): the “hERG current change (%, negative = inhibition) at 1uM” value was 15.1%.

In the case of `O=C(COc1ccccc1)NCC(=O)NC1=NCCS1`, the “hERG current change (%, negative = inhibition) at 1uM” value was 16.1%.

Regarding `COc1ccc(CNC(=O)Nc2cc(C)ccc2C)cc1`, the “hERG current change (%, negative = inhibition) at 1uM” value amounted to 13.2%.

Consider `CCCCCOCC1CC(C/C(C)=N/NC(N)=S)C(=O)O1` (centres unmarked), for which the “hERG current change (%, negative = inhibition) at 1uM” value is recorded as -5.31%.

Take `CC(C)c1onc(C(=O)NC2CCCC2)c1[N+](=O)[O-]`: the “hERG current change (%, negative = inhibition) at 1uM” value was determined as 13.4%.

Turning to `CCCc1cc(Nc2ccc(C)cc2)n2ncnc2n1`, the “hERG current change (%, negative = inhibition) at 1uM” value is reported as 8.04%.

As for `CC1=C(C(=O)OCCOc2ccccc2)C(c2coc3ccccc3c2=O)C2=C(CCCC2=O)N1` (centres unmarked), the “hERG current change (%, negative = inhibition) at 1uM” value is given as -4.82%.

For the compound `CC(NC(=O)Nc1nccs1)(C(F)(F)F)C(F)(F)F`, the “hERG current change (%, negative = inhibition) at 1uM” value turned out to be 4.39%.

In the case of `CC(=O)NC1=NN(C(C)=O)C(C)(c2cccc([N+](=O)[O-])c2)S1` (centres unmarked), the “hERG current change (%, negative = inhibition) at 1uM” value is 8.83%.

`CN(C)c1ccc(/C=C2\C(=N)N3N=C(CC(=O)N4CCCCC4)SC3=NC2=O)cc1`: the “hERG current change (%, negative = inhibition) at 1uM” value turned out to be 11.5%.

In the case of `COC(=O)C1=C(C(=O)OC)[C@@H]2N(C)c3ccccc3[C@@]23C[C@@H](C(=O)OC)N(C(=O)CC(C)C)C3=N1`, the “hERG current change (%, negative = inhibition) at 1uM” value is 14.4%.

As to `COc1ccc(C(=O)NCCSc2ccccn2)cc1`, the “hERG current change (%, negative = inhibition) at 1uM” value turned out to be 9.08%.

In the case of `CC(=O)Oc1ccc(C(=O)Nc2cc(NC(=O)c3ccc(OC(C)=O)cc3)cc(C(=O)NC(C)(C)C)c2)cc1`, the “hERG current change (%, negative = inhibition) at 1uM” value came to 7.64%.

In the case of `Brc1ccc2ncnc(NCc3cccnc3)c2c1`, the “hERG current change (%, negative = inhibition) at 1uM” value came to 4.06%.

With `O=C(CC(C(=O)O)c1ccc(F)cc1)c1ccc(Cl)cc1` (centres unmarked), the “hERG current change (%, negative = inhibition) at 1uM” value was 14.2%.

Turning to `COc1ccc(NC2CCCN(C(=O)c3c(C)noc3C)C2)cc1` (centres unmarked), the “hERG current change (%, negative = inhibition) at 1uM” value stood at 6.08%.

With `Cc1c(C(=O)C(=O)NCCCn2ccnc2)c2ccccc2n1C`, the “hERG current change (%, negative = inhibition) at 1uM” value is given as -5.07%.

For the compound `Cc1cc(C)nc([N-]S(=O)(=O)c2ccc(N)cc2)n1.[Na+]`, the “hERG current change (%, negative = inhibition) at 1uM” value was 1.51%.

Take `Cc1ccc(N(CC(=O)NCc2ccc3c(c2)OCO3)C(=O)c2csnn2)cc1`: the “hERG current change (%, negative = inhibition) at 1uM” value is recorded as 8.63%.

Turning to `CCCCNc1nc(-c2ccccc2)c(C(=O)OCC)cc1C#N`, the “hERG current change (%, negative = inhibition) at 1uM” value amounted to 3.64%.

`CCc1cc2ccc(OC)cc2nc1SCC(=O)NNC(=O)c1ccco1`: the “hERG current change (%, negative = inhibition) at 1uM” value worked out at 9.99%.

`COC(=O)C1=C(N)Oc2cc(C)[nH]c(=O)c2C1c1cc(OC)c(OC)c(OC)c1` (centres unmarked): the “hERG current change (%, negative = inhibition) at 1uM” value was 4.65%.

As for `CCn1c(SCC(=O)NC2CC2)nnc1-c1cccs1`, the “hERG current change (%, negative = inhibition) at 1uM” value amounted to 3.36%.

For the compound `COc1cccc(N=Nc2c(=O)[nH]n3c(=O)cc(C)[nH]c23)c1`, the “hERG current change (%, negative = inhibition) at 1uM” value is given as 21.2%.

Turning to `COc1ccc(N2CC(C(=O)Nc3nnc(SCC(=O)N4CCCC4)s3)CC2=O)cc1` (centres unmarked), the “hERG current change (%, negative = inhibition) at 1uM” value is 18%.

For the compound `CCOC(=O)c1cc2c(=O)n3ccccc3nc2n(C(C)C)c1=NC(=O)c1ccco1`, the “hERG current change (%, negative = inhibition) at 1uM” value is recorded as -23.7%.

Turning to `Clc1ccccc1-c1nnc2n1-c1ccccc1SC2`, the “hERG current change (%, negative = inhibition) at 1uM” value is given as 8.47%.

For the compound `CCCC(=O)Nc1ccc(Br)c(Cl)c1`, the “hERG current change (%, negative = inhibition) at 1uM” value came out at 11.3%.

Consider `O=C(O)CCn1cc(/C=C\C(=O)c2ccc(Cl)cc2)c(-c2cccc(Br)c2)n1`, for which the “hERG current change (%, negative = inhibition) at 1uM” value was determined as 13.4%.

As for `COc1ccc(OCc2nn3c(-c4ccccn4)nnc3s2)cc1`, the “hERG current change (%, negative = inhibition) at 1uM” value is -7.56%.

On to `CCOc1ccc(-n2c(C)cc(/C=N\NC(=O)CC(=O)NC3CCCCC3)c2C)cc1`, for which the “hERG current change (%, negative = inhibition) at 1uM” value is on record as 7.94%.

Consider `COc1ccc(OC)c(-c2csc(NC(=O)CN3C(=O)NC4(CCCC4)C3=O)n2)c1`, for which the “hERG current change (%, negative = inhibition) at 1uM” value amounted to 2.35%.

For `CCc1ccc(NC(=O)CN(c2cc(C)cc(C)c2)S(=O)(=O)c2c(C)[nH]c(=O)[nH]c2=O)cc1`, the “hERG current change (%, negative = inhibition) at 1uM” value was found to be 5.29%.
